± gives the standard deviation of the averaged measurements. The list shows a part of the results.

For the test, the system named is PfAP2-I AP2 domain 3 (GST-tagged). Put plainly: gcPBM binding intensity (ln(normalized median fluorescence intensity)); higher = stronger DNA binding. Summed up: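 Binding intensity is defined as the maximum Masliner-normalised natural-log median intensity across replicate spots for either probe orientation. It was measured on an Agilent 4 × 180k array of primer-extended double-stranded 36-bp intergenic genomic probes and negative controls, to which GST-tagged P. falciparum DNA-binding domains made in E. coli were applied for 1 h in 1× PBS with 1% milk, 0.2 mg/ml BSA, 0.5% salmon testes DNA and 0.03% Triton X-100. Detection was by Alexa488 anti-GST antibody and scanning at 488 nm.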
Regarding “TATTTTTACAATGGTAGTACCATTTTGAATCTTTGT [XGTACX_site6092]”, the “gcPBM binding intensity (ln)” value worked out at 7.62 ± 0.49.
As to “CACCCGCACGTATTTGCACACATTGCCACGTAATTA [CACACA_site5786]”, the “gcPBM binding intensity (ln)” value turned out to be 10.2 ± 0.23.
Take “TCGGTATCTGTTCAAAGTACACATTTGTATACAAAA [XGTACX_site1890]”: the “gcPBM binding intensity (ln)” value was found to be 7.97 ± 0.34.
For “ACACTATCTTAGATTTGTACATATTTATATATGTAT [XGTACX_site8739]”, the “gcPBM binding intensity (ln)” value stood at 7.64 ± 0.56.
Regarding “TATATAACATATGGGACACACATGCAACTGTTATAT [CACACA_site3792]”, the “gcPBM binding intensity (ln)” value is 7.99 ± 0.71.
With “ATGTGATGTTATATATGTACTTATTTTTTAATAAGG [XGTACX_site1786]”, the “gcPBM binding intensity (ln)” value is 8.04 ± 0.25.
For “AAAAATATTATGATGTTTATTAGAAAGGAAAAAACT [CACACA_negctrl_site1417]”, the “gcPBM binding intensity (ln)” value was 7.74 ± 0.69.
“TTTTTATATTATTTAATGAGAAATAATTATAAACAA [CACACA_negctrl_site553]”: the “gcPBM binding intensity (ln)” value worked out at 7.49 ± 0.38.
The same measure for “GTATATATATATATATGTACATATTTAGAGTTCTGT [XGTACX_site5357]”: 7.87 ± 0.41; for “ATATTTACCATTGTATGTACATATATAAAATATATC [XGTACX_site3237]”: 7.86 ± 0.57.
As for “AACATATACACGAACACACACACATATATATATATA [CACACA_site502]”, the “gcPBM binding intensity (ln)” value came to 9.12 ± 0.16.
As to “TAAAGAAAAAAATGTTGTACTTTATGAAACATATTT [XGTACX_site412]”, the “gcPBM binding intensity (ln)” value was 7.83 ± 0.36.
“AAAACAAATGAGTACACACACATAAAAATTGAAAAT [CACACA_site199]”: the “gcPBM binding intensity (ln)” value was 8.21 ± 0.071.
The same measure for “CGTAGCCCCACTAACACACACAAATATACTCAATCA [CACACA_site5587]”: 7.93 ± 0.43; for “AGTTTTTATTAAAACAAAATTTAATTATAACGTTGA [XGTACX_negctrl_site298]”: 7.25 ± 0.49; for “TTATATGTATGAACAAGTACATGCTATAATTATAAA [XGTACX_site1399]”: 7.7 ± 0.35.
On to “TATATATATATATACACACATACATATATATATTTG [CACACA_site857]”, for which the “gcPBM binding intensity (ln)” value amounted to 9.44 ± 0.52.
The same measure for “ATATATATATATATATGTACATATATACATATATGT [XGTACX_site1521]”: 9.47 ± 0.63; for AATAACTATATATGTGTGCACAAAAATTTGACATAA: 10.7 ± 0.049.
With “AGTAGTCTGGAGAAGAGTACATAGTTTCTGGTAGCT [XGTACX_site2023]”, the “gcPBM binding intensity (ln)” value stood at 7.64 ± 0.71.
“TTTTTTTTTTTTTGATGTACAATAATTAAAGAGTAA [XGTACX_site8403]”: the “gcPBM binding intensity (ln)” value worked out at 8.14 ± 0.57.
On to “TTTTTTTTTTCTTAGGTGCAAAAAATAAGTATATAT [GTGCAC_site9394]”, for which the “gcPBM binding intensity (ln)” value came out at 10.6 ± 0.59.
On to “AAAAAAAAAAGAACCCGTACATAAATAATATATATA [XGTACX_site164]”, for which the “gcPBM binding intensity (ln)” value was found to be 8.4 ± 0.76.
Turning to “AAAAAAAAAAAAGAAACACACACATTTGTATATAAT [CACACA_site8648]”, the “gcPBM binding intensity (ln)” value was found to be 7.6 ± 0.58.
With “GAAACATAAAAATATATTGAAATAGTATCATGGGTA [CACACA_negctrl_site352]”, the “gcPBM binding intensity (ln)” value was found to be 7.8 ± 0.57.
Consider “TATAGTTATATTAGAAGTACTTCATTTTAACATATT [XGTACX_site7101]”, for which the “gcPBM binding intensity (ln)” value stood at 7.51 ± 0.2.
For the sequence “TTTTTTTTGTATTAATGTACATATAACTTTTTTTTT [XGTACX_site7903]”, the “gcPBM binding intensity (ln)” value came to 7.7 ± 0.49.
Turning to “TAAAAAATAAAATAATGTACATATGAATTATATATT [XGTACX_site8398]”, the “gcPBM binding intensity (ln)” value is 7.57 ± 0.53.
As for “TTAATTACATGTTATTGTACGTATTTTCTATCTATC [XGTACX_site844]”, the “gcPBM binding intensity (ln)” value was 7.97 ± 0.42.
For the sequence “AAATTCTTAACCCAACGTACATATAATAAATTCTTA [XGTACX_site8538]”, the “gcPBM binding intensity (ln)” value is 7.78 ± 0.46.
With “TAAACCAAACAATTATGTATAAGATGTATATATATA [GTGCAC_negctrl_site438]”, the “gcPBM binding intensity (ln)” value turned out to be 8.88 ± 0.057.
With “AAAAAGAAGAATATATGTACACAAAATTTATGAGTT [XGTACX_site8609]”, the “gcPBM binding intensity (ln)” value was 7.87 ± 0.56.
As to “AAAAAAAAAAATATATTATTTTACTTGTTTATTTTA [CACACA_negctrl_site1447]”, the “gcPBM binding intensity (ln)” value is 7.11 ± 0.31.
Take “CATTATAAGAAACACACACACATATATATATATATA [CACACA_site1051]”: the “gcPBM binding intensity (ln)” value turned out to be 9.4 ± 0.29.
As to “ATTCCCTTAAGAAACTGTACAAAACTTTCTTCGATT [XGTACX_site775]”, the “gcPBM binding intensity (ln)” value turned out to be 7.75 ± 0.65.
The value for “GTGTGTGTATATATTTGTACATATATTTAAACATAT [XGTACX_site1074]” was 9.08 ± 0.28.
Take “TATACATAAATTATATGTACTGAAAATACATAATTA [XGTACX_site3626]”: the “gcPBM binding intensity (ln)” value was determined as 7.32 ± 0.16.
Regarding “GGTAGGTGGATATATACACACATATATTATAGATAT [CACACA_site7021]”, the “gcPBM binding intensity (ln)” value was 8.29 ± 0.23.
The same measure for “ATCGAGAAAAATAAAATAATACAATTTCTTTAAATA [XGTACX_negctrl_site162]”: 7.12 ± 0.56.
As to “CACAGATATATACATACACACATATATACACATATA [CACACA_site6323]”, the “gcPBM binding intensity (ln)” value is 8 ± 0.41.
In the case of “AAATGCGCCATGTGTACACATATATATATATATATA [CACACA_site4649]”, the “gcPBM binding intensity (ln)” value is 9.5 ± 0.51.
“TTAAATAAGTTCTTCACACATATATATATATATATA [CACACA_site4742]”: the “gcPBM binding intensity (ln)” value stood at 9.35 ± 0.49.
The value for “TACATATATAAAAATTGTACACTTCATAAGAAAAAA [XGTACX_site4347]” was 7.89 ± 0.59; that for “AAAATTTTTTAACACTGTACTTGTAATATTAAAACT [XGTACX_site8369]” was 8.06 ± 0.4.
